Measured values as given in PMC4336329 (PLoS ONE, 2015).
Among all 310,000 compounds or so, about 2,200 (0.71%) showed an effect of 50% or more. Effects have a minus sign here. This is one part of the list.

Target: human ether-à-go-go-related gene (hERG) potassium channel (human, UniProt Q12809)
Assay: primary screen, population patch clamp on CHO cells stably expressing hERG

Chain of human ether-à-go-go-related gene (hERG) potassium channel (Q12809 whole entry, looked up): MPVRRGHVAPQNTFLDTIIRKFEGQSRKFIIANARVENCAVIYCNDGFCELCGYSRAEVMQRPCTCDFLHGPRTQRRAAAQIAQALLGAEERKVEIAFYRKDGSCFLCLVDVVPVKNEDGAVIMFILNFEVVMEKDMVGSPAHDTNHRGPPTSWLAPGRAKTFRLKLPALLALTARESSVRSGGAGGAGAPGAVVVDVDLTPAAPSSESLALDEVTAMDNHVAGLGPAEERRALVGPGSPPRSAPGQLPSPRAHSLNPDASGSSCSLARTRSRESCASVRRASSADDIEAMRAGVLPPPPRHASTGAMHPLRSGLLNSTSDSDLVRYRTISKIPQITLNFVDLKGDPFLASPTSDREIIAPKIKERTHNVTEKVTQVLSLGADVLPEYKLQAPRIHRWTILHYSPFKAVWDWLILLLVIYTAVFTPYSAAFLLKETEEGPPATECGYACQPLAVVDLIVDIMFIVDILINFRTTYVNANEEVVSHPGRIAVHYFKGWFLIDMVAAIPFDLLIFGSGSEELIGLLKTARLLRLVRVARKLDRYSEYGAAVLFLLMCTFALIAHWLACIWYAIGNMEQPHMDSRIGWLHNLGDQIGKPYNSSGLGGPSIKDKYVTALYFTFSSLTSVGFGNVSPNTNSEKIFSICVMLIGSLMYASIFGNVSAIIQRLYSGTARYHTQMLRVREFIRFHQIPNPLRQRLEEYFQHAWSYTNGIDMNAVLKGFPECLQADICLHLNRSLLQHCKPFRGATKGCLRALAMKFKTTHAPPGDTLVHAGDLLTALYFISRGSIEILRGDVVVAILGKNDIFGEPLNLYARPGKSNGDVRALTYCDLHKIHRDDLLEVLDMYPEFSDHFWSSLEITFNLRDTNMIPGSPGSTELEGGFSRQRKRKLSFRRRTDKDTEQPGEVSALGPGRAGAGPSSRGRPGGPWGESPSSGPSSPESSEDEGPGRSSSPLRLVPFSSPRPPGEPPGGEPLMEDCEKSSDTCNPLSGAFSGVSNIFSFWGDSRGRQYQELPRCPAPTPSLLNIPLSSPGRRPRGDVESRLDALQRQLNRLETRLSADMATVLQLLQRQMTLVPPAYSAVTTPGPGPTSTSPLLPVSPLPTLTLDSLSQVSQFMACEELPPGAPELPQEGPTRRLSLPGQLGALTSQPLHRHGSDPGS

Compared with CCCCn1c(N)c(N(CC(C)C)C(=O)c2cccc(S(=O)(=O)N3CCN(C(C)=O)CC3)c2)c(=O)[nH]c1=O, COc1ccccc1N1CC(C(=O)Nc2ccc(S(=O)(=O)N3CCOCC3)cc2)CC1=O (stereo not shown) is higher in “hERG current change (%, negative = inhibition) at 1uM” value: 5.89% for the first, 9.13% for the second.

First: O=[N+]([O-])/C=C\c1ccc(N2CCOCC2)cc1
Second: CC(C)c1ccc(/C=C/C(=O)NC2CCCCC2)cc1
The “hERG current change (%, negative = inhibition) at 1uM” value of the first is lower: -5.16% for the first, 10.9% for the second.

Compared with Cc1ccccc1NC(=O)C1CCCN(c2nnc(N3CCCC3=O)s2)C1 (stereo not shown), O=C(CSc1ccc(-c2ccccc2)nn1)NC1CCCC1 is higher in “hERG current change (%, negative = inhibition) at 1uM” value: 4.65% for the first, 9.58% for the second.

First: O=C1c2ccccc2S(=O)(=O)N1CC1CC(c2ccc(Cl)cc2)=NO1 (stereo not shown)
Second: CC(C)C(=O)Nc1c(-c2ccc(Cl)cc2)c(=O)c2ccccc2n1C
The “hERG current change (%, negative = inhibition) at 1uM” value of the first is lower: -4.35% for the first, 13.8% for the second.

Going from COCCNC(=O)c1c(CSc2ccc(F)cc2)noc1C(=O)NCc1ccccc1 to CC(=O)Nc1ccc(Sc2ncccc2C(=O)Nc2ccc(F)cc2)cn1, the “hERG current change (%, negative = inhibition) at 1uM” value rises from 4.81% to 15.5%.

Going from C=C(C)C(=O)Nc1ccc(NC(C)C)cc1 to O=C(NC(=S)Nc1ccc(S(=O)(=O)N2CCCCC2)cc1)c1ccccc1, the “hERG current change (%, negative = inhibition) at 1uM” value falls from 14.5% to 3.31%.

Compared with CCOC(=O)c1c(-c2ccc(OC)cc2)csc1/N=C/C1=C(O)CCCC1=O, COc1ccc(-c2csc(N(CC3CCCO3)C(=O)c3ccccc3)n2)cc1 (stereo not shown) is lower in “hERG current change (%, negative = inhibition) at 1uM” value: 9.14% for the first, -0.515% for the second.

Compared with O=C(N=C1SC2CS(=O)(=O)CC2N1Cc1ccccc1)C1CCCCC1 (stereo not shown), CCOC(=O)N1CCC(N2C(=O)c3ccccc3C2Nc2ccccc2)CC1 (stereo not shown) is lower in “hERG current change (%, negative = inhibition) at 1uM” value: 24.8% for the first, 6.14% for the second.

First: CC1(C)CC(=O)c2c(n(S(=O)(=O)c3ccccc3)c3ccc(NS(=O)(=O)c4ccccc4)cc23)C1
Second: CCN1c2ccccc2N(C)C1(C)c1ccccc1 (stereo not shown)
The “hERG current change (%, negative = inhibition) at 1uM” value of the first is higher: 13.9% for the first, 8.62% for the second.

Going from CCc1ccc(OCC(=O)Oc2ccc([N+](=O)[O-])cc2)cc1 to Cc1cccc(C(=O)Oc2ccc(/C=N/NC(=O)c3cc(O)cc(O)c3)cc2)c1, the “hERG current change (%, negative = inhibition) at 1uM” value rises from 15.6% to 20.7%.

First: Cc1ccc(Nc2cc(-n3cccn3)ncn2)c(C)c1
Second: Cc1ccc(C)c(Cn2nnc3c(=O)[nH]c(C(=O)NCc4ccco4)nc32)c1
The “hERG current change (%, negative = inhibition) at 1uM” value of the first is higher: 4.04% for the first, 2.49% for the second.

Compared with N#C/C(=C\c1ccc(Cl)cc1Cl)c1n[nH]c(Cn2cncn2)n1, Cn1cnnc1SCC(=O)Nc1ccc2ccccc2c1 is higher in “hERG current change (%, negative = inhibition) at 1uM” value: 1.9% for the first, 7.13% for the second.

Compared with CCOC(=O)c1c(C)[nH]c(N=Nc2cc(C(=O)O)cc(C(=O)O)c2)c1C, CCOC(=O)C1=C(C)NC(C)=C(C(=O)OCC)C1C(=O)OCC(=O)N(CC)C1CCS(=O)(=O)C1 (stereo not shown) is lower in “hERG current change (%, negative = inhibition) at 1uM” value: 10.6% for the first, -5.58% for the second.

Compared with Cc1nc(CNS(=O)(=O)c2cccc(F)c2)cs1, COc1cccc(NS(=O)(=O)c2cn(C)c(=O)n(C)c2=O)c1 is higher in “hERG current change (%, negative = inhibition) at 1uM” value: 6.27% for the first, 13.4% for the second.

Compared with CCCC(=O)c1c(O)[nH]c(=O)[nH]c1=O, CCCCN1C(=O)C(O)(CC(=O)c2ccccn2)c2ccccc21 (stereo not shown) is higher in “hERG current change (%, negative = inhibition) at 1uM” value: 11.3% for the first, 13.7% for the second.

Going from CSc1sc(C(=O)NNC(C)=O)c2c1C1(CCC2)SCCS1 to COC(=O)c1[nH]c2cccc(C)c2c1NC(=O)CN1CCN(c2ccccc2OC)CC1, the “hERG current change (%, negative = inhibition) at 1uM” value rises from 7.14% to 8.2%.

Going from CC(C)Oc1ccc(/C=C/C(=O)NCC2COc3ccccc3O2)cc1 (stereo not shown) to CCCCN1C(=O)CN(CCc2ccccc2)C(=O)C1c1ccc(OC)cc1 (stereo not shown), the “hERG current change (%, negative = inhibition) at 1uM” value falls from 12.2% to 10.3%.

Compared with O=C(c1ccccc1Br)N1CCC(c2nc3ccccc3s2)CC1, Cc1ccc(C)c(OCc2cc(C(=O)N3CCC(N4CCCC(O)C4)CC3)no2)c1 (stereo not shown) is lower in “hERG current change (%, negative = inhibition) at 1uM” value: -1.62% for the first, -2.1% for the second.

Compared with COc1cc(C2OC(=O)C3C(c4ccc(OC(C)=O)c(OC)c4)OC(=O)C23)ccc1OC(C)=O (stereo not shown), COCOc1ccc(/C=C2/Oc3cc(OCOC)cc(OCOC)c3C2=O)c(OCOC)c1 is higher in “hERG current change (%, negative = inhibition) at 1uM” value: 12.4% for the first, 15.2% for the second.

Compared with CN(CC1COCCO1)c1nc2nonc2nc1N1CCSCC1 (stereo not shown), Cc1cc(C)nc(N(C#N)CC(=O)N2CCC(C(N)=O)CC2)n1 is higher in “hERG current change (%, negative = inhibition) at 1uM” value: 7.08% for the first, 15.2% for the second.

Compared with CC1(C)CC(=O)C2=C(C1)OC(N)=C(C#N)C2c1cccs1 (stereo not shown), COCCn1c(SCC(=O)N2CCCC2)nnc1C(C)C is lower in “hERG current change (%, negative = inhibition) at 1uM” value: 12% for the first, 11.9% for the second.

With CN1CCN(CC(O)COc2ccc(OCC(O)CN3CCN(C)CC3)cc2)CC1 (stereo not shown) the “hERG current change (%, negative = inhibition) at 1uM” value was 10.2%.
